Test results as given in the supplement of paper PMC8728848.
The other results are listed elsewhere or left out.

Legend:
Test in all cases: glycan array binding signal (z-score within array); higher = stronger binding
Conditions in all cases: glycan notation: IUPAC condensed, linker removed; mutation: G182A
[1] = target: GlcNAc6S(b1-3)Gal(b1-4)GlcNAc
Method in brief: (§1)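 The Consortium for Functional Glycomics database supplied 3228 glycan arrays, of which those lacking an available protein sequence were dropped. The binding signal, a within-array Z-score, was averaged across arrays of the same protein sequence and across linkers. Negative scores can be read as non-binding.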

Kdn(a2-3)Gal(b1-3)GalNAc = target: Kdn(a2-3)Gal(b1-3)GalNAc
Method in brief: as §1

Kdn(a2-3)Gal(b1-3)GlcNAc = target: Kdn(a2-3)Gal(b1-3)GlcNAc
Method in brief: as §1

Kdn(a2-3)Gal(b1-4)Glc = target: Kdn(a2-3)Gal(b1-4)Glc
Method in brief: as §1

Kdn(a2-3)Gal(b1-4)GlcNAc = target: Kdn(a2-3)Gal(b1-4)GlcNAc
Method in brief: as §1

[2] = target: Kdn(a2-3)Gal(b1-4)[Fuc(a1-3)]GlcNAc
Method in brief: as §1

Kdn(a2-6)Gal(b1-4)GlcNAc = target: Kdn(a2-6)Gal(b1-4)GlcNAc
Method in brief: as §1

[3] = target: Man(a1-2)Man(a1-2)Man(a1-3)Man
Method in brief: as §1

[4] = target: Man(a1-2)Man(a1-2)Man(a1-6)[Man(a1-3)]Man
Method in brief: as §1

Man(a1-2)Man(a1-3)Man = target: Man(a1-2)Man(a1-3)Man
Method in brief: as §1

[5] = target: Man(a1-2)Man(a1-3)[Man(a1-2)Man(a1-6)]Man
Method in brief: as §1

[6] = target: Man(a1-2)Man(a1-3)[Man(a1-2)Man(a1-6)]Man(a1-6)[Man(a1-2)Man(a1-2)Man(a1-3)]Man
Method in brief: as §1

[7] = target: Man(a1-2)Man(a1-3)[Man(a1-2)Man(a1-6)]Man(a1-6)[Man(a1-2)Man(a1-2)Man(a1-3)]Man(b1-4)GlcNAc(b1-4)GlcNAc
Method in brief: as §1

[8] = target: Man(a1-2)Man(a1-3)[Man(a1-6)]Man(a1-6)[Man(a1-2)Man(a1-3)]Man(b1-4)GlcNAc(b1-4)GlcNAc
Method in brief: as §1

[9] = target: Man(a1-2)Man(a1-6)[Man(a1-3)]Man(a1-6)[Man(a1-2)Man(a1-2)Man(a1-3)]Man
Method in brief: as §1

[10] = target: Man(a1-2)Man(a1-6)[Man(a1-3)]Man(a1-6)[Man(a1-2)Man(a1-2)Man(a1-3)]Man(b1-4)GlcNAc(b1-4)GlcNAc
Method in brief: as §1

Man(a1-3)[Man(a1-6)]Man = target: Man(a1-3)[Man(a1-6)]Man
Method in brief: as §1

[11] = target: Man(a1-3)[Man(a1-6)]Man(a1-6)[Man(a1-2)Man(a1-3)]Man(b1-4)GlcNAc(b1-4)GlcNAc
Method in brief: as §1

[12] = target: Man(a1-3)[Man(a1-6)]Man(a1-6)[Man(a1-3)]Man
Method in brief: as §1

[13] = target: Man(a1-3)[Man(a1-6)]Man(a1-6)[Man(a1-3)]Man(b1-4)GlcNAc(b1-4)GlcNAc
Method in brief: as §1

[14] = target: Man(a1-3)[Man(a1-6)]Man(b1-4)GlcNAc(b1-4)GlcNAc
Method in brief: as §1

Man(a1-6)Man = target: Man(a1-6)Man
Method in brief: as §1

Man(b1-4)GlcNAc = target: Man(b1-4)GlcNAc
Method in brief: as §1

Neu5Ac(a2-3)Gal = target: Neu5Ac(a2-3)Gal
Method in brief: as §1

[15] = target: Neu5Ac(a2-3)Gal(b1-3)GalNAc
Method in brief: as §1

[16] = target: Neu5Ac(a2-3)Gal(b1-3)GalNAc(b1-3)Gal(a1-4)Gal(b1-4)Glc
Method in brief: as §1

[17] = target: Neu5Ac(a2-3)Gal(b1-3)GalNAc(b1-4)[Neu5Ac(a2-3)]Gal(b1-4)Glc
Method in brief: as §1

[18] = target: Neu5Ac(a2-3)Gal(b1-3)GalNAc6S
Method in brief: as §1

[19] = target: Neu5Ac(a2-3)Gal(b1-3)GlcNAc
Method in brief: as §1

[20] = target: Neu5Ac(a2-3)Gal(b1-3)GlcNAc(b1-2)Man(a1-3)[Neu5Ac(a2-3)Gal(b1-3)GlcNAc(b1-2)Man(a1-6)]Man(b1-4)GlcNAc(b1-4)GlcNAc
Method in brief: as §1

[21] = target: Neu5Ac(a2-3)Gal(b1-3)GlcNAc(b1-3)Gal(b1-3)GlcNAc
Method in brief: as §1

[22] = target: Neu5Ac(a2-3)Gal(b1-3)GlcNAc(b1-3)Gal(b1-4)GlcNAc
Method in brief: as §1

[23] = target: Neu5Ac(a2-3)Gal(b1-3)GlcNAc(b1-3)GalNAc
Method in brief: as §1

[24] = target: Neu5Ac(a2-3)Gal(b1-3)GlcNAc6S
Method in brief: as §1

[25] = target: Neu5Ac(a2-3)Gal(b1-3)[Fuc(a1-4)]GlcNAc
Method in brief: as §1

[26] = target: Neu5Ac(a2-3)Gal(b1-3)[Fuc(a1-4)]GlcNAc(b1-3)Gal(b1-3)[Fuc(a1-4)]GlcNAc
Method in brief: as §1

[27] = target: Neu5Ac(a2-3)Gal(b1-3)[Fuc(a1-4)]GlcNAc(b1-3)Gal(b1-4)[Fuc(a1-3)]GlcNAc
Method in brief: as §1

[28] = target: Neu5Ac(a2-3)Gal(b1-3)[Neu5Ac(a2-3)Gal(b1-4)]GlcNAc
Method in brief: as §1

[29] = target: Neu5Ac(a2-3)Gal(b1-3)[Neu5Ac(a2-6)]GalNAc
Method in brief: as §1

Neu5Ac(a2-3)Gal(b1-4)Glc = target: Neu5Ac(a2-3)Gal(b1-4)Glc
Method in brief: as §1

[30] = target: Neu5Ac(a2-3)Gal(b1-4)GlcNAc
Method in brief: as §1

[31] = target: Neu5Ac(a2-3)Gal(b1-4)GlcNAc(b1-2)Man(a1-3)[GlcNAc(b1-2)Man(b1-4)GlcNAc(b1-2)Man(a1-6)]Man(b1-4)GlcNAc(b1-4)GlcNAc
Method in brief: as §1

[32] = target: Neu5Ac(a2-3)Gal(b1-4)GlcNAc(b1-2)Man(a1-3)[Neu5Ac(a2-6)Gal(b1-4)GlcNAc(b1-2)Man(a1-6)]Man(b1-4)GlcNAc(b1-4)GlcNAc
Method in brief: as §1

[33] = target: Neu5Ac(a2-3)Gal(b1-4)GlcNAc(b1-3)Gal(b1-3)GlcNAc
Method in brief: as §1

[34] = target: Neu5Ac(a2-3)Gal(b1-4)GlcNAc(b1-3)Gal(b1-4)GlcNAc
Method in brief: as §1

[35] = target: Neu5Ac(a2-3)Gal(b1-4)GlcNAc(b1-3)Gal(b1-4)GlcNAc(b1-3)Gal(b1-4)GlcNAc
Method in brief: as §1

[36] = target: Neu5Ac(a2-3)Gal(b1-4)GlcNAc(b1-3)Gal(b1-4)[Fuc(a1-3)]GlcNAc
Method in brief: as §1

[37] = target: Neu5Ac(a2-3)Gal(b1-4)GlcNAc(b1-3)GalNAc
Method in brief: as §1

[38] = target: Neu5Ac(a2-3)Gal(b1-4)GlcNAc(b1-6)[Gal(b1-3)]GalNAc
Method in brief: as §1

[39] = target: Neu5Ac(a2-3)Gal(b1-4)GlcNAc(b1-6)[Neu5Ac(a2-3)Gal(b1-3)]GalNAc
Method in brief: as §1

[40] = target: Neu5Ac(a2-3)Gal(b1-4)GlcNAc6S
Method in brief: as §1

[41] = target: Neu5Ac(a2-3)Gal(b1-4)[Fuc(a1-3)]GlcNAc
Method in brief: as §1

[42] = target: Neu5Ac(a2-3)Gal(b1-4)[Fuc(a1-3)]GlcNAc(b1-3)Gal
Method in brief: as §1

[43] = target: Neu5Ac(a2-3)Gal(b1-4)[Fuc(a1-3)]GlcNAc(b1-3)Gal(b1-4)GlcNAc
Method in brief: as §1

[44] = target: Neu5Ac(a2-3)Gal(b1-4)[Fuc(a1-3)]GlcNAc(b1-3)Gal(b1-4)[Fuc(a1-3)]GlcNAc(b1-3)Gal(b1-4)[Fuc(a1-3)]GlcNAc
Method in brief: as §1

B1: Gal 3 (Homo sapiens), P17931 (protein)
chain: MADNFSLHDALSGSGNPNPQGWPGAWGNQPAGAGGYPGASYPGAYPGQAPPGAYPGQAPPGAYHGAPGAYPGAPAPGVYPGPPSGPGAYPSSGQPSAPGAYPATGPYGAPAGPLIVPYNLPLPGGVVPRMLITILGTVKPNANILDFQRGNDVAFHFNPRFNENNRRVIVCNTKLDNNWAREERQSVFPFESGKPFKIQVLVEPDHFKVAVNDAHLLQYNHRVKKLNEISKLGISGDIDLTSASYTMI
[1]
  glycan array binding signal (z-score): -0.192
Kdn(a2-3)Gal(b1-3)GalNAc
  glycan array binding signal (z-score): -0.188
Kdn(a2-3)Gal(b1-3)GlcNAc
  glycan array binding signal (z-score): -0.167
Kdn(a2-3)Gal(b1-4)Glc
  glycan array binding signal (z-score): -0.177
Kdn(a2-3)Gal(b1-4)GlcNAc
  glycan array binding signal (z-score): -0.198
[2]
  glycan array binding signal (z-score): -0.189
Kdn(a2-6)Gal(b1-4)GlcNAc
  glycan array binding signal (z-score): -0.18
[3]
  glycan array binding signal (z-score): -0.149
[4]
  glycan array binding signal (z-score): -0.194
Man(a1-2)Man(a1-3)Man
  glycan array binding signal (z-score): -0.189
[5]
  glycan array binding signal (z-score): -0.189
[6]
  glycan array binding signal (z-score): -0.184
[7]
  glycan array binding signal (z-score): -0.191
[8]
  glycan array binding signal (z-score): -0.19
[9]
  glycan array binding signal (z-score): -0.198
[10]
  glycan array binding signal (z-score): -0.184
Man(a1-3)[Man(a1-6)]Man
  glycan array binding signal (z-score): -0.151
[11]
  glycan array binding signal (z-score): -0.151
[12]
  glycan array binding signal (z-score): -0.157
[13]
  glycan array binding signal (z-score): -0.191
[14]
  glycan array binding signal (z-score): -0.191
Man(a1-6)Man
  glycan array binding signal (z-score): -0.19
Man(b1-4)GlcNAc
  glycan array binding signal (z-score): -0.165
Neu5Ac(a2-3)Gal
  glycan array binding signal (z-score): -0.155
[15]
  glycan array binding signal (z-score): -0.183
[16]
  glycan array binding signal (z-score): -0.191
[17]
  glycan array binding signal (z-score): -0.187
[18]
  glycan array binding signal (z-score): -0.18
[19]
  glycan array binding signal (z-score): -0.159
[20]
  glycan array binding signal (z-score): -0.194
[21]
  glycan array binding signal (z-score): -0.067
[22]
  glycan array binding signal (z-score): -0.013
[23]
  glycan array binding signal (z-score): -0.164
[24]
  glycan array binding signal (z-score): -0.193
[25]
  glycan array binding signal (z-score): -0.194
[26]
  glycan array binding signal (z-score): -0.187
[27]
  glycan array binding signal (z-score): -0.176
[28]
  glycan array binding signal (z-score): -0.194
[29]
  glycan array binding signal (z-score): -0.189
Neu5Ac(a2-3)Gal(b1-4)Glc
  glycan array binding signal (z-score): -0.187
[30]
  glycan array binding signal (z-score): -0.165
[31]
  glycan array binding signal (z-score): -0.168
[32]
  glycan array binding signal (z-score): -0.168
[33]
  glycan array binding signal (z-score): -0.194
[34]
  glycan array binding signal (z-score): -0.15
[35]
  glycan array binding signal (z-score): 3.32
[36]
  glycan array binding signal (z-score): -0.196
[37]
  glycan array binding signal (z-score): -0.187
[38]
  glycan array binding signal (z-score): -0.173
[39]
  glycan array binding signal (z-score): -0.181
[40]
  glycan array binding signal (z-score): -0.107
[41]
  glycan array binding signal (z-score): -0.155
[42]
  glycan array binding signal (z-score): -0.192
[43]
  glycan array binding signal (z-score): -0.15
[44]
  glycan array binding signal (z-score): -0.194
